According to the supplement of paper PMC11417369:
± gives the standard deviation of the averaged measurements. The list shows a part of the results.

system: PfAP2-LT AP2 domain (GST-tagged); assay: gcPBM binding intensity (ln(normalized median fluorescence intensity)); higher = stronger DNA binding
In short: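 The highest Masliner-normalised natural-log median intensity across replicate spots of either probe orientation is reported as binding intensity. GST-tagged P. falciparum DNA-binding domains expressed in E. coli were applied for 1 h to an Agilent 4 × 180k array of primer-extended double-stranded 36-bp intergenic genomic probes plus negative controls, and bound protein was detected with Alexa488 anti-GST antibody and scanned at 488 nm.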

| Sequence | gcPBM binding intensity (ln) |
| --- | --- |
| CTTTCAAAATTATTTATAGTATCTCATATTTTAGTA [XGTACX_negctrl_site72] | 8.29 ± 0.45 |
| TTTATTAATAAAAAGGTGCAATCAGGAAAAATTATC [GTGCAC_site9626] | 8.63 ± 0.47 |
| ACACATATGTATATATGTACTTATATATATATATAT [XGTACX_site8632] | 9.29 ± 0.23 |
| ATCCTTTATAAATAAGTGCATATAAAAAATAATATT [GTGCAC_site9759] | 8.56 ± 0.45 |
| ATAATAAATTCTACGCGTACAAAACCATGAACATTA [XGTACX_site7505] | 8.86 ± 0.41 |
| TTTTAGCTATTTTAATATAATGAAGCAAAAAATAAA [TGCATGCA_negctrl_site576] | 8.32 ± 0.4 |
| ATGTATTACTTAAATATATGAAACATATTACTTTTA [CACACA_negctrl_site496] | 8.48 ± 0.38 |
| AATTATATATAAAAAGTGCAAAACGATAATTCATCA | 9 ± 0.44 |
| AATATATATATATTATGTACACATAGAAATATATTA [XGTACX_site3874] | 8.85 ± 0.38 |
| TCATATTCCAAAAAAAAAAAAAAAAAAAAAAAAATA [CACACA_negctrl_site1293] | 8.31 ± 0.46 |
| CATACATACAAACACACACACATATAAATACATACA [CACACA_site4625] | 9.99 ± 0.31 |
| ACATTGTTGGTGTTAGTGCATTGGTAAATATTATAT | 8.89 ± 0.28 |
| AAAAAAAAAAAAAAAACACACATATCTGTATTTATA [CACACA_site5760] | 8.85 ± 0.37 |
| ATAGTATATCAAAATTTGTAAATCATTCTCAATAAA [CACACA_negctrl_site430] | 8.46 ± 0.58 |
| AAAAAAAAAATTTTCGTGCACATAAGAAAATTTAAA [GTGCAC_site9788] | 8.46 ± 0.55 |
| ACCTACATACATATGTGTACTTATTTGTATTCACTG [XGTACX_site7124] | 9.38 ± 0.46 |
| ATAATATATGAAAAAACGATTTTTTCATTTTAAATA [XGTACX_negctrl_site146] | 8.38 ± 0.36 |
| TTTATAAACAAATGAACACACAAACATATTTATATA [CACACA_site7478] | 8.86 ± 0.42 |
| TATTTAAAGATATATACACACATTTGATATTATTAT [CACACA_site6509] | 8.85 ± 0.4 |
| CACACGTAAAAGTATAATATAAAAAAGGTATACACT [CACACA_negctrl_site127] | 8.93 ± 0.45 |
| TTTATAATAAAAAATACATGCAGTTATATATAATAA [TGCATGCA_site654] | 8.54 ± 0.49 |
| ATATTGAAAATTTGAAGTACATCTAAATATATTATT [XGTACX_site7817] | 8.44 ± 0.45 |

| Sequence | gcPBM binding intensity (ln) |
| --- | --- |
| ATCCGTGTCTGAAATACACACATGACAATGTGAATG [CACACA_site6556] | 8.97 ± 0.3 |
| TATATATAAATAAACACACACAAATATAATAAAAAA [CACACA_site3526] | 9.39 ± 0.44 |
| ATAATGTGTTTGGTATTCTTGATAGATAGTTTTGTG [CACACA_negctrl_site68] | 8.86 ± 0.41 |
| CCTTCCTTGAATTTTACATGCAAAAAATTATAAAAC [TGCATGCA_site663] | 8.4 ± 0.31 |
| TATATATTATATATTTGTACATATATATAAAAACTT [XGTACX_site449] | 8.53 ± 0.44 |
| TTATTAAAATATACATTTGAAAGTAATCTTATTTAA [XGTACX_negctrl_site431] | 8.1 ± 0.38 |
| TTTTTTCAATATTATATCCAAAAATATTTGTAAATA [TGCATGCA_negctrl_site596] | 8.05 ± 0.48 |
| ATTTTTATTTTTTTTGTGCACATTTTCATTTTCTAT [GTGCAC_site9580] | 9.24 ± 0.51 |
| TATAAAAAAATAATAAAATAATAAAATATATAAATA [TGCATGCA_negctrl_site394] | 8.55 ± 0.55 |
| TTTTAAAAGGTAAAATGTACATATATAATATATACA [XGTACX_site1222] | 8.63 ± 0.45 |
| ATTCTATTATCCTTTGCACACAAAATAAATGAAAAA [CACACA_site3030] | 8.8 ± 0.33 |
| TAATACTTAGAGAAAAGTACGTATGAACTTATGTAA [XGTACX_site5504] | 8.59 ± 0.52 |
| TTTTTTTTTTTTTTTTGTACTTATAAAATAACATGT [XGTACX_site134] | 8.41 ± 0.31 |
| AAACATTTATGAAGGTGTACAAAAATGAATTAAAAA [XGTACX_site7035] | 8.79 ± 0.52 |
| TATTTAAATACTGACGCATGCATAAGGAGTAATAGT [TGCATGCA_site465] | 9.23 ± 0.31 |
| AGTCCTTACACATATATTAAATATGTGTATATATAT [XGTACX_negctrl_site336] | 9.16 ± 0.32 |
| TTTTGTTTAGTGTATTGTACAATATATCTTTATTTT [XGTACX_site5163] | 8.92 ± 0.48 |
| AAAAAAAAAAAAAAAAGTACATATATATATATAATT [XGTACX_site4437] | 8.72 ± 0.52 |
| TATTAATACGGACACACACACACACTAGATAAAATA [CACACA_site4295] | 10.1 ± 0.11 |
| TAATTAAATACATTAACACACACACTAATATATACA [CACACA_site8938] | 9.55 ± 0.17 |
| TTCCTGTTAATTACAACACACAATTTTTATTTTATG [CACACA_site779] | 8.95 ± 0.54 |
| TAAAAGTTTTTATACATACACACCTATAAATTAAGT [CACACA_site2446] | 8.72 ± 0.36 |

| Sequence | gcPBM binding intensity (ln) |
| --- | --- |
| CTTTATTATAAGATTACACACATGTCTTATAATTTA [CACACA_site5715] | 9.02 ± 0.42 |
| AAAATAAAAATAAAAGCACACATAAATATATATATA [CACACA_site8409] | 9.13 ± 0.38 |
| TACCAAAAAAAAAAAAATAAAAATAAAAAAAAAAAT [CACACA_negctrl_site1714] | 8.58 ± 0.64 |
| TAACTATTATAAAAATGTACAAATGAAAATATTTTT [XGTACX_site1438] | 8.54 ± 0.47 |
| AAAATTAAAACCTACACACACATTTAAAAAAAAAAA [CACACA_site3068] | 9.29 ± 0.37 |
| ATTTTTTTGGTAATTTGTACATAATATATACATAAT [XGTACX_site3742] | 8.79 ± 0.47 |
| TATATTTATTTAAAAACATGCATTTTTTTTTTCCGT [TGCATGCA_site44] | 8.57 ± 0.49 |
| TTTTTTTTTTTTACATGTACTTATTTTAAATATAAA [XGTACX_site805] | 8.71 ± 0.41 |
| ATATATTTATAGACTTGTACATATATATACGATATA [XGTACX_site8890] | 8.83 ± 0.26 |
| TATATTATAGGTTGTGTACACATATTATATAGTACT [CACACA_site4583] | 8.99 ± 0.41 |
| AAGGCATGACTATCTGCACACATAAAAATAAGAAAT [CACACA_site8180] | 9.43 ± 0.45 |
| TAAAAAAAAATATAATGTACGTATAAATATATATTA [XGTACX_site5085] | 8.62 ± 0.5 |
| TAAACATAATAATATACACACATATATTGATATATA [CACACA_site2144] | 8.93 ± 0.35 |
| AATTTTTTTTTTTTGTGTCCTCATAATTCTTCATTC [XGTACX_site5042] | 8.67 ± 0.58 |
| ATCTTTCCTTTTGCATGTACATATGGAAATACTTTT [XGTACX_site6995] | 9.01 ± 0.4 |
| ATAATTAAGTTATGTGTGCACTGTTAAAAATAAATG | 9.1 ± 0.44 |
| TATATATATATAAACGCATGTAATTTATACACACAT [TGCATGCA_site946] | 9.27 ± 0.29 |
| ATACACATAACATATATATATATATATATATATATC [CACACA_negctrl_site278] | 9.57 ± 0.45 |
| AATATAATATCTATAATATAAAAAAAACAAAAAAAA [CACACA_negctrl_site875] | 8.52 ± 0.65 |
| TTTTATGATATTTACACACAAACGTGAGATAGCTCA [CACACA_site2311] | 8.85 ± 0.31 |
| TTTTTTATTTTTTACATATTTAGCTCATATTTATAT [GTGCAC_negctrl_site491] | 8.85 ± 0.56 |
| AAAATATGTTAATATTGTACTTAAATAAAAAAAATA [XGTACX_site7152] | 8.47 ± 0.42 |

| Sequence | gcPBM binding intensity (ln) |
| --- | --- |
| ATTCTTAAAATAAAATGTACGAAAAAAAAAAAAAAA [XGTACX_site1657] | 8.42 ± 0.41 |
| ATAAATCGATAAAATATATGCTACATGAATAAATAA [XGTACX_negctrl_site604] | 8.82 ± 0.4 |
| TTTAAAAAATTATATTCACACACATACACATATATA [CACACA_site8076] | 9.23 ± 0.4 |
| TAAAAGGATACATATACACACATATATATATATATA [CACACA_site2791] | 9.72 ± 0.13 |
| ATATTTTTATATAATGAACACACATATTATATCATT [CACACA_site8446] | 8.88 ± 0.45 |
| TTCTTCAACAAAAAAATAAAAATAAAATAATAAAAA [GTGCAC_negctrl_site619] | 8.36 ± 0.49 |
| TATTTTCCATGAGGTAGTACACATTAAAAAATCGTT [XGTACX_site6887] | 8.52 ± 0.34 |
| TAAGCGTTTTTTAAAACACACATAAGAACTAAATGA [CACACA_site1670] | 8.66 ± 0.47 |
| TTTCTTAAACCGTACAGTACACACCTTTATAATGTT [XGTACX_site434] | 8.98 ± 0.49 |
| TTACACCTTAGGATCTGTACAAATATATGACAAATC [XGTACX_site4333] | 8.67 ± 0.31 |
| TAATATTAAAAAGAGACACACAAAAATATTAAAAAA [CACACA_site3120] | 8.81 ± 0.59 |
| AAGGTTTTGGGTTTTAATTAATTTAATATGATTATA [XGTACX_negctrl_site147] | 8.58 ± 0.23 |
| ATATTAAATATATACAGTACACATTACAATACAATA [XGTACX_site3221] | 8.98 ± 0.45 |
| CTTTGTAGTTGGTCCACACACATATCTGGAAGAATA [CACACA_site4834] | 8.98 ± 0.46 |
| TAGATGTATTTTTAAAGTACTTTTTAATATATAATC [XGTACX_site1431] | 8.38 ± 0.36 |
| AGAATTATATACACAAGTACATAATGACATATATAT [XGTACX_site5617] | 8.99 ± 0.44 |
| TAAAAAATTATATTCACACACATACACATATATATA [CACACA_site545] | 9.29 ± 0.29 |
| TTACAATATAATAAATGTACATATAACAAATATATA [XGTACX_site2199] | 8.77 ± 0.44 |
| CGACTTTTAAAATATACACACATATAAATAAATATA [CACACA_site6523] | 8.79 ± 0.42 |
| TTTTTTTTTTTTTGTAGTACATACTATTTTATTAAT [XGTACX_site950] | 8.64 ± 0.52 |
| TATATATGCATTAAAGTGTTTTTTTTTTTTTTTTTT [CACACA_negctrl_site1353] | 8.79 ± 0.3 |
| ATGTGTATATGTTAATGTACAAATTTTGAAAATGCC [XGTACX_site2685] | 9.01 ± 0.41 |
